# The other results are listed elsewhere or left out.
# Assays:
# Assay in all cases: glycan array binding signal (z-score within array); higher = stronger binding
# Conditions in all cases: glycan notation: IUPAC condensed, linker removed
# [1] = target: Neu5Ac(a2-3)Gal(b1-3)[Neu5Ac(a2-6)]GalNAc
# How it was run: (§1)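 Glycan array data were curated from 3228 arrays in the Consortium for Functional Glycomics database and kept only where the protein sequence was available. Glycan names were converted to IUPAC-condensed notation, and columns mapping to the same glycan were averaged. The binding signal is a within-array Z-score, averaged across arrays of the same protein sequence at different concentrations or buffers and across linkers. Negative Z-scores can be read as non-binding.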
# Neu5Ac(a2-3)Gal(b1-4)Glc = target: Neu5Ac(a2-3)Gal(b1-4)Glc
# How it was run: as §1
# [2] = target: Neu5Ac(a2-3)Gal(b1-4)GlcNAc
# How it was run: as §1
# [3] = target: Neu5Ac(a2-3)Gal(b1-4)GlcNAc(b1-2)Man(a1-3)[Neu5Ac(a2-3)Gal(b1-4)GlcNAc(b1-2)Man(a1-6)]Man(b1-4)GlcNAc(b1-4)GlcNAc
# How it was run: as §1
# [4] = target: Neu5Ac(a2-3)Gal(b1-4)GlcNAc(b1-3)Gal(b1-4)GlcNAc
# How it was run: as §1
# [5] = target: Neu5Ac(a2-3)Gal(b1-4)GlcNAc(b1-3)Gal(b1-4)GlcNAc(b1-3)Gal(b1-4)GlcNAc
# How it was run: as §1
# [6] = target: Neu5Ac(a2-3)Gal(b1-4)GlcNAc(b1-3)Gal(b1-4)[Fuc(a1-3)]GlcNAc
# How it was run: as §1
# [7] = target: Neu5Ac(a2-3)Gal(b1-4)GlcNAc6S
# How it was run: as §1
# [8] = target: Neu5Ac(a2-3)Gal(b1-4)[Fuc(a1-3)]GlcNAc
# How it was run: as §1
# [9] = target: Neu5Ac(a2-3)Gal(b1-4)[Fuc(a1-3)]GlcNAc(b1-3)Gal
# How it was run: as §1
# [10] = target: Neu5Ac(a2-3)Gal(b1-4)[Fuc(a1-3)]GlcNAc(b1-3)Gal(b1-4)GlcNAc
# How it was run: as §1
# [11] = target: Neu5Ac(a2-3)Gal(b1-4)[Fuc(a1-3)]GlcNAc(b1-3)Gal(b1-4)[Fuc(a1-3)]GlcNAc(b1-3)Gal(b1-4)[Fuc(a1-3)]GlcNAc
# How it was run: as §1
# [12] = target: Neu5Ac(a2-3)Gal(b1-4)[Fuc(a1-3)]GlcNAc6S
# How it was run: as §1
# [13] = target: Neu5Ac(a2-3)Gal6S(b1-4)GlcNAc
# How it was run: as §1
# [14] = target: Neu5Ac(a2-3)Gal6S(b1-4)[Fuc(a1-3)]GlcNAc
# How it was run: as §1
# Neu5Ac(a2-3)GalNAc = target: Neu5Ac(a2-3)GalNAc
# How it was run: as §1
# [15] = target: Neu5Ac(a2-3)GalNAc(b1-4)GlcNAc
# How it was run: as §1
# [16] = target: Neu5Ac(a2-3)[GalNAc(b1-4)]Gal(b1-4)Glc
# How it was run: as §1
# [17] = target: Neu5Ac(a2-3)[GalNAc(b1-4)]Gal(b1-4)GlcNAc
# How it was run: as §1
# [18] = target: Neu5Ac(a2-3)[Neu5Ac(a2-6)]GalNAc
# How it was run: as §1
# Neu5Ac(a2-6)Gal = target: Neu5Ac(a2-6)Gal
# How it was run: as §1
# Neu5Ac(a2-6)Gal(b1-4)Glc = target: Neu5Ac(a2-6)Gal(b1-4)Glc
# How it was run: as §1
# [19] = target: Neu5Ac(a2-6)Gal(b1-4)GlcNAc
# How it was run: as §1
# [20] = target: Neu5Ac(a2-6)Gal(b1-4)GlcNAc(b1-3)Gal(b1-4)GlcNAc
# How it was run: as §1
# [21] = target: Neu5Ac(a2-6)Gal(b1-4)GlcNAc(b1-3)Gal(b1-4)[Fuc(a1-3)]GlcNAc(b1-3)Gal(b1-4)[Fuc(a1-3)]GlcNAc
# How it was run: as §1
# [22] = target: Neu5Ac(a2-6)Gal(b1-4)GlcNAc6S
# How it was run: as §1
# Neu5Ac(a2-6)GalNAc = target: Neu5Ac(a2-6)GalNAc
# How it was run: as §1
# [23] = target: Neu5Ac(a2-6)GalNAc(b1-4)GlcNAc
# How it was run: as §1
# Neu5Ac(a2-8)Neu5Ac = target: Neu5Ac(a2-8)Neu5Ac
# How it was run: as §1
# [24] = target: Neu5Ac(a2-8)Neu5Ac(a2-3)Gal(b1-4)Glc
# How it was run: as §1
# [25] = target: Neu5Ac(a2-8)Neu5Ac(a2-3)[GalNAc(b1-4)]Gal(b1-4)Glc
# How it was run: as §1
# [26] = target: Neu5Ac(a2-8)Neu5Ac(a2-8)Neu5Ac
# How it was run: as §1
# [27] = target: Neu5Ac(a2-8)Neu5Ac(a2-8)Neu5Ac(a2-3)Gal(b1-4)Glc
# How it was run: as §1
# [28] = target: Neu5Ac(a2-8)Neu5Ac(a2-8)Neu5Ac(a2-3)[GalNAc(b1-4)]Gal(b1-4)Glc
# How it was run: as §1
# [29] = target: Neu5Ac(a2-8)Neu5Ac(a2-8)Neu5Ac(a2-8)Neu5Ac(a2-3)[GalNAc(b1-4)]Gal(b1-4)Glc
# How it was run: as §1
# Neu5Ac(b1-6)GalNAc = target: Neu5Ac(b1-6)GalNAc
# How it was run: as §1
# [30] = target: Neu5Ac(b2-6)Gal(b1-4)GlcNAc
# How it was run: as §1
# [31] = target: Neu5Ac9Ac(a2-6)Gal(b1-4)GlcNAc
# How it was run: as §1
# [32] = target: Neu5Gc(a2-3)Gal(b1-3)GlcNAc
# How it was run: as §1
# [33] = target: Neu5Gc(a2-3)Gal(b1-3)[Fuc(a1-4)]GlcNAc
# How it was run: as §1
# Neu5Gc(a2-3)Gal(b1-4)Glc = target: Neu5Gc(a2-3)Gal(b1-4)Glc
# How it was run: as §1
# [34] = target: Neu5Gc(a2-3)Gal(b1-4)GlcNAc
# How it was run: as §1
# [35] = target: Neu5Gc(a2-3)Gal(b1-4)[Fuc(a1-3)]GlcNAc
# How it was run: as §1
# [36] = target: Neu5Gc(a2-6)Gal(b1-4)GlcNAc
# How it was run: as §1
# Neu5Gc(a2-6)GalNAc = target: Neu5Gc(a2-6)GalNAc
# How it was run: as §1
binder,measurement,setting,value
SIGNR8 (Mus musculus) (protein) MAGEPEFHQSKNHEEEVTSGEQGFAEHDPEGLICSSKSLQGHLTQVPWLLLLLISLGLFLLMLATLVQVSRIRAYSQGQTQDQQGSSSLDKVAVPREQTHSGLEQIQQIQQQLTQFNASLAGLCRPCPWDWELFQGSCYLFSRTLGSWETSASSCEDLGAHLVIVNSVSEQRFMKYWNVRKNQRSWIGLSDHIHEGSWQWVDGSALKFSFWKEGEPNNDGDEDCVELFMDDWNDNKCTEQNFWVCEQPSAPCPHH,glycan array binding signal (z-score),[1],-0.407
same,glycan array binding signal (z-score),Neu5Ac(a2-3)Gal(b1-4)Glc,-0.388
same,glycan array binding signal (z-score),[2],-0.404
same,glycan array binding signal (z-score),[3],-0.396
same,glycan array binding signal (z-score),[4],-0.407
same,glycan array binding signal (z-score),[5],-0.409
same,glycan array binding signal (z-score),[6],-0.404
same,glycan array binding signal (z-score),[7],-0.403
same,glycan array binding signal (z-score),[8],-0.399
same,glycan array binding signal (z-score),[9],-0.405
same,glycan array binding signal (z-score),[10],-0.38
same,glycan array binding signal (z-score),[11],-0.392
same,glycan array binding signal (z-score),[12],-0.394
same,glycan array binding signal (z-score),[13],-0.377
same,glycan array binding signal (z-score),[14],-0.395
same,glycan array binding signal (z-score),Neu5Ac(a2-3)GalNAc,-0.398
same,glycan array binding signal (z-score),[15],-0.4
same,glycan array binding signal (z-score),[16],-0.4
same,glycan array binding signal (z-score),[17],-0.4
same,glycan array binding signal (z-score),[18],-0.387
same,glycan array binding signal (z-score),Neu5Ac(a2-6)Gal,-0.395
same,glycan array binding signal (z-score),Neu5Ac(a2-6)Gal(b1-4)Glc,-0.394
same,glycan array binding signal (z-score),[19],-0.396
same,glycan array binding signal (z-score),[20],-0.406
same,glycan array binding signal (z-score),[21],-0.398
same,glycan array binding signal (z-score),[22],-0.389
same,glycan array binding signal (z-score),Neu5Ac(a2-6)GalNAc,-0.39
same,glycan array binding signal (z-score),[23],-0.401
same,glycan array binding signal (z-score),Neu5Ac(a2-8)Neu5Ac,-0.405
same,glycan array binding signal (z-score),[24],-0.378
same,glycan array binding signal (z-score),[25],-0.403
same,glycan array binding signal (z-score),[26],-0.4
same,glycan array binding signal (z-score),[27],-0.381
same,glycan array binding signal (z-score),[28],-0.39
same,glycan array binding signal (z-score),[29],-0.396
same,glycan array binding signal (z-score),Neu5Ac(b1-6)GalNAc,-0.392
same,glycan array binding signal (z-score),[30],-0.388
same,glycan array binding signal (z-score),[31],-0.384
same,glycan array binding signal (z-score),[32],-0.396
same,glycan array binding signal (z-score),[33],-0.391
same,glycan array binding signal (z-score),Neu5Gc(a2-3)Gal(b1-4)Glc,-0.364
same,glycan array binding signal (z-score),[34],-0.396
same,glycan array binding signal (z-score),[35],-0.389
same,glycan array binding signal (z-score),[36],-0.397
same,glycan array binding signal (z-score),Neu5Gc(a2-6)GalNAc,-0.399

# — the supplement of paper PMC8728848
